In all, about 33,000 sequences were measured (“E-score (-0.5 to 0.5)”: median about -0.013, highest 2% from about 0.3 on). The list shows a part of the results.
Molecular target: T1, Msn1 (UniProt P22148)
T1 sequence: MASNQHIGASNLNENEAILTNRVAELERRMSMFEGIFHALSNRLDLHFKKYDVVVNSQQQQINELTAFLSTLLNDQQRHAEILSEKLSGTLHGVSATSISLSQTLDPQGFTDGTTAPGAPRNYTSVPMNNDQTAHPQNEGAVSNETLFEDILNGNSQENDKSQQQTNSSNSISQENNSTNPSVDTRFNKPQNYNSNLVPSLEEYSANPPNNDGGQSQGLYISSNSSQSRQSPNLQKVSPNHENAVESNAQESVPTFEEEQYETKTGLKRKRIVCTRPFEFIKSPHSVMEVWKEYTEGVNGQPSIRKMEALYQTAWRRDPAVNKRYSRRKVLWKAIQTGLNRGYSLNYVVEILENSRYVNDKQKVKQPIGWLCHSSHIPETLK
Assay: PBM E-score (8-mer binding enrichment) (E-score (-0.5 to 0.5)); higher = stronger / more preferred TF binding; most listed sequences are background and not binding sites
Settings: protein concentration: 200 nM; construct: GST-full length
Procedure, shortened: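 Masliner-normalised scans of fluorescent anti-GST signal were the basis for scoring. That signal came from GST-tagged yeast transcription factors applied at about 100-200 nM to double-stranded universal all-10-mer Agilent arrays on fresh or once-stripped slides. Each ungapped eight-base word, pooled with its reverse complement, received an E-score from the Universal PBM Analysis Suite.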

Sequence | PBM E-score
AGCACCTC | -0.148
CCTAAATA | -0.129
ACCCCAAA | 0.0866
ACTCAACG | -0.108
ACTTAAGG | 0.066
ACGGCGCT | -0.183
ATAGGTGG | 0.0555
ATTGACCC | 0.0434
GAAACGGC | -0.0341
CAACTTTA | 0.0445
GCCCGAGA | 0.129
CCAAGCAC | -0.0299
TATCAAAA | 0.145
GATCACAA | 0.157
ATATACAA | 0.24
CTCGTCAC | 0.0128
ACTACATC | -0.0335
GCTAAGCA | -0.0885
AACGTAGT | -0.0151
ATATGGTA | 0.154
CACATTGA | 0.0276
CGTTGTAA | 0.0531
ACCCTGGC | -0.349
GTAAGATA | 0.162
AAATAATG | 0.117

Sequence | PBM E-score
CCGAATAC | 0.0509
GGACGAAC | 0.282
AGAGGTTC | -0.0645
CTCACGAG | -0.193
CTCAATTC | -0.0581
ATCATGCA | -0.222
GCCGGTCA | 0.00773
GGTGTTAA | -0.0746
ACCATTGC | -0.0477
GCGAAACA | 0.0374
CGAGTTAC | 0.0785
GGCCTGTA | -0.247
CCTCTTGA | -0.0795
GTGGGGAA | -0.0697
AAGGCCAT | 0.0237
CTGCGCAC | -0.0321
GTGTGTAA | -0.0988
AGAACCAC | -0.117
ACGATCGT | 0.208
AGTCTCAC | -0.00088
CATGAACG | -0.0971
GGGGGCGA | -0.417
AATCGATT | 0.0863
CAGCCACA | -0.0773
CCCAAGCC | -0.0839

Sequence | PBM E-score
CTGGCACC | -0.275
CTGCGTAC | -0.12
TAGGTCCA | 0.153
CCAGATGA | 0.107
AATACGTA | 0.00965
TATCTTAA | 0.129
ATTATCAC | 0.147
ACACGTGC | 0.0777
CAACGGTA | -0.128
ATAAGGAC | 0.369
ACGGGAGC | -0.184
CACAGCAG | -0.0659
ACCGCGTC | 0.12
TATCGTAA | -0.0517
GGTGATAC | -0.105
AAAAGCAG | -0.0398
ATTAGCAA | 0.22
ACCGCCGC | -0.0867
AAAGGTTA | -0.071
GCGCCCAA | -0.149
TCTATAGA | -0.165
AAAGGAAC | 0.0464
GAGGCCCC | -0.343
AGGCCCAT | -0.227
CTAACCTC | -0.162

Sequence | PBM E-score
CCGAGAGC | -0.0632
CACCGCAC | -0.119
GCATGGCA | -0.0098
ACGGGTAA | -0.00678
CAGCTTGG | 0.033
GCGAAACC | 0.122
CATTCGCC | -0.196
AAAGATTT | -0.0185
CTCGGATC | 0.188
AACAGACC | -0.0742
CAACTCTG | -0.0439
CGTTATCC | 0.00106
CCTGACCG | -0.128
GTTCAGTA | 0.0516
ACGCGGTA | -0.0954
GCATATAC | 0.0331
CCGGTGCC | -0.126
AACCCGGA | 0.0522
ATGCCATC | -0.0803
ACCTAGCC | -0.0544
AGGCTGTG | -0.082
GGGCAAAA | 0.142
ACGGGCAT | -0.0723
GCTAGAGC | -0.146
GAACGCTA | -0.164

Sequence | PBM E-score
GCAGGGAC | 0.163
CATAGGCG | -0.0149
TACACCTA | -0.0747
CCTTCCAA | -0.23
GTATAGCA | 0.115
ATTGCTCC | 0.0201
CAGTCCGG | -0.0462
CACAACAC | 0.021
CACAGTAC | 0.146
CTCCATTC | -0.0717
CTACGGTC | -0.267
AAATCATT | 0.124
AGAATCCC | 0.196
CTCGGGGC | -0.183
CCCTTTTC | -0.0434
CTCCTACC | -0.385
TACCCGTA | -0.0437
ATATCGGA | 0.16
CAGCCTGG | -0.164
GTACGGAA | 0.138
AGACTGTG | -0.13
CTAATGTC | 0.378
ATATCCGC | -0.0503
CAAAAAGG | -0.0523
AGTTGTTC | 0.0053

Sequence | PBM E-score
AGGCCATC | -0.0374
ATCAGCCA | -0.199
TACGGGGA | -0.11
CGTTATAA | 0.0511
TCAGGTAA | -0.187
AAATGGAC | 0.338
AGCAGTTC | -0.216
CGGTCAGA | 0.0144
CGCGTAAC | 0.0166
ATTAAAGC | 0.0761
CAGCGCTC | -0.109
TCACTCCA | 0.0709
CTTCGCGA | -0.0474
TCGGATAA | 0.0982
AAAAGGGT | 0.0914
TCTTATAA | 0.164
ATCGCCGA | 0.0457
AGTCCCCA | -0.186
ACTTTCCC | -0.124
CTTGTTTA | 0.0291
CAATCTTA | 0.0591
AACGCGGT | 0.0128
GTATGCCA | -0.169
ACCTTGCA | -0.105
CCGTGATC | -0.0112

Sequence | PBM E-score
ACCAGCGG | -0.0991
ATGGCCAG | 0.0616
AGCGAAAA | -0.0661
TCAACGAA | 0.101
AAAGAGAA | 0.0586
CCCTTTCC | -0.196
ACCAACAA | 0.101
CCTCAAGA | -0.136
AGGTAACT | 0.07
GAAATATC | 0.151
AGTATGTC | 0.353
GCCCAAAC | -0.0708
ACCTACTC | -0.0557
AGCCGGCC | -0.1
AAGCTTGA | -0.108
AAGTCAGA | 0.0287
CACGGTCA | 0.098
CTTAACCC | -0.183
ACTTGCAG | 0.0752
CGCCAGTC | -0.214
ATAAGCTA | 0.0481
ACGACGAA | 0.114
ACTCTACT | 0.0905
CCCCCAGA | -0.3
AGAGAAGA | 0.012

Sequence | PBM E-score
TTGAAAAA | 0.0748
AAAGTCTT | 0.187
CGTAATTC | 0.0697
AACTTATG | -0.139
ATTGCGTC | 0.123
CACCCAAC | -0.201
GATTCTGA | -0.0324
ATCTTTAC | -0.0234
CAATACTG | 0.0181
CTTGCAGC | -0.0125
AACGTAAG | -0.0801
GCGTACAC | 0.0788
ATCGGATG | -0.0434
CACCTACA | -0.11
ATTAGATC | 0.0117
GCAAGCTA | -0.0766
AACTGACT | 0.0085
ACCACAAG | 0.00018
CGGTCCGC | 0.00168
ATTGCGTG | -0.134
ACGATCCG | -0.0628
GGTCGAGA | -0.242
ATGTCGAG | 0.162
ACTACAAA | 0.162
TTAGCTAA | -0.0991

Sequence | PBM E-score
AAGTAATA | -0.0811
GCACACAC | -0.103
GTCCACAA | 0.294
CCGCCTAC | -4e-05
ACCTAATG | -0.261
CCAAGAAC | -0.0852
AGTTCAAT | -0.148
TAATCGTA | 0.0255
CCCAAAAA | 0.0733
AGAGGATC | -0.145
TCCTGAGA | 0.0942
CCTGTCCA | 0.156
CCAGTGAG | -0.235
AATCGTCC | 0.0791
ACAAGGCT | 0.106
CTAACATC | 0.00886
TACTCCGA | 0.0959
TACGTCGA | -0.0753
CCACCGCG | -0.0225

From the supplement of paper PMC3334620
